Data reported in the supplement of paper PMC12578646, “Prodrug florfenicol amine is activated by intrinsic resistance to target Mycobacterium abscessus” (Nature Microbiology, 2025).
M. abscessus ATCC 19977 and its deletion, point and complemented mutants after 5 days of drug at 37 °C plus 24 h of resazurin. Growth in % of untreated wells at the dose given (lower = more inhibition); checkerboards give % inhibition (higher = more inhibition); IC50 from the fitted curve (lower = more potent). No active / inactive call. IC50 values come from the same 384-well curves. Growth is not capped and can exceed 100%. The direction of the checkerboard scale is read from the raw signals. Capreomycin is a mixture.

Experiments:
Assay in all cases: growth relative to untreated wells; higher = more growth (less inhibition)
[1] = system: Mycobacterium abscessus ATCC 19977 Eis2 E120fs
Procedure: (§1)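 384-well two-fold dose series, two replicates; 5 days at 37 °C, then 24 h with resazurin; fluorescence scaled to growth and killed controls.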

[2] = system: Mycobacterium abscessus ATCC 19977 Eis2 T258R
Procedure: as §1

[3] = system: Mycobacterium abscessus ATCC 19977 Eis2 Y227D
Procedure: as §1

[4] = system: Mycobacterium abscessus ATCC 19977 Eis2 Y255*
Procedure: as §1

[5] = system: Mycobacterium abscessus ATCC 19977 Eis2 Y284*
Procedure: as §1

[6] = system: Mycobacterium abscessus ATCC 19977 WhiB7 A51T
Procedure: as §1

[7] = system: Mycobacterium abscessus ATCC 19977 WhiB7 F24fs
Procedure: as §1

[8] = system: Mycobacterium abscessus ATCC 19977 WhiB7 L37P
Procedure: as §1

[9] = system: Mycobacterium abscessus ATCC 19977 WhiB7 T70fs
Procedure: as §1

[10] = system: Mycobacterium abscessus ATCC 19977 Δeis2
Procedure: as §1

[11] = system: Mycobacterium abscessus ATCC 19977 ΔwhiB7
Procedure: as §1

[12] = system: Mycobacterium abscessus ATCC 19977
Procedure: as §1

CN(C)c1cc(NC(=O)CNC(C)(C)C)c(O)c2c1C[C@H]1C[C@H]3[C@H](N(C)C)C(O)=C(C(N)=O)C(=O)[C@@]3(O)C(O)=C1C2=O [tigecycline]
Settings | growth [%]
[1], 0.00390625 µg/mL | 107
[1], 0.0078125 µg/mL | 104.1
[1], 0.015625 µg/mL | 100.6
[1], 0.03125 µg/mL | 98.3
[1], 0.0625 µg/mL | 98.8
[1], 0.125 µg/mL | 102.4
[1], 0.25 µg/mL | 119
[1], 0.5 µg/mL | 128.2
[1], 1 µg/mL | 108
[1], 2 µg/mL | 2.75
[1], 4 µg/mL | -6.06
[2], 0.00390625 µg/mL | 103
[2], 0.0078125 µg/mL | 105
[2], 0.015625 µg/mL | 102
[2], 0.03125 µg/mL | 104
[2], 0.0625 µg/mL | 105
[2], 0.125 µg/mL | 108
[2], 0.25 µg/mL | 116
[2], 0.5 µg/mL | 121.8
[2], 1 µg/mL | 68.9
[2], 2 µg/mL | 0.745
[2], 4 µg/mL | -6.04
[3], 0.00390625 µg/mL | 108
[3], 0.0078125 µg/mL | 102.7
[3], 0.015625 µg/mL | 104.9
[3], 0.03125 µg/mL | 104
[3], 0.0625 µg/mL | 95.3
[3], 0.125 µg/mL | 94
[3], 0.25 µg/mL | 109
[3], 0.5 µg/mL | 122
[3], 1 µg/mL | 92.7
[3], 2 µg/mL | 8.06
[3], 4 µg/mL | -5.15
[4], 0.00390625 µg/mL | 104.2
[4], 0.0078125 µg/mL | 104
[4], 0.015625 µg/mL | 104
[4], 0.03125 µg/mL | 102
[4], 0.0625 µg/mL | 92.7
[4], 0.125 µg/mL | 99.8
[4], 0.25 µg/mL | 117
[4], 0.5 µg/mL | 121
[4], 1 µg/mL | 107
[4], 2 µg/mL | 1.81
[4], 4 µg/mL | -6.8
[5], 0.00390625 µg/mL | 103.2
[5], 0.0078125 µg/mL | 101
[5], 0.015625 µg/mL | 103
[5], 0.03125 µg/mL | 106
[5], 0.0625 µg/mL | 94.456
[5], 0.125 µg/mL | 97.8
[5], 0.25 µg/mL | 108.8
[5], 0.5 µg/mL | 121
[5], 1 µg/mL | 98.6
[5], 2 µg/mL | 3.03
[5], 4 µg/mL | -5.15
[6], 0.00390625 µg/mL | 103
[6], 0.0078125 µg/mL | 105
[6], 0.015625 µg/mL | 99.9
[6], 0.03125 µg/mL | 104
[6], 0.0625 µg/mL | 85.5
[6], 0.125 µg/mL | 104
[6], 0.25 µg/mL | 122
[6], 0.5 µg/mL | 132
[6], 1 µg/mL | 16.2
[6], 2 µg/mL | -4.86
[6], 4 µg/mL | -7.94
[7], 0.00390625 µg/mL | 104
[7], 0.0078125 µg/mL | 105
[7], 0.015625 µg/mL | 95.7
[7], 0.03125 µg/mL | 104
[7], 0.0625 µg/mL | 99.3
[7], 0.125 µg/mL | 105
[7], 0.25 µg/mL | 118
[7], 0.5 µg/mL | 127
[7], 1 µg/mL | 8.22
[7], 2 µg/mL | -4.343
[7], 4 µg/mL | -7.2
[8], 0.00390625 µg/mL | 95
[8], 0.0078125 µg/mL | 98.2
[8], 0.015625 µg/mL | 96.1
[8], 0.03125 µg/mL | 103.8
[8], 0.0625 µg/mL | 110
[8], 0.125 µg/mL | 115
[8], 0.25 µg/mL | 116.9
[8], 0.5 µg/mL | 125.7
[8], 1 µg/mL | 15.3
[8], 2 µg/mL | -4.19
[8], 4 µg/mL | -6.88
[9], 0.00390625 µg/mL | 104.4
[9], 0.0078125 µg/mL | 98.9
[9], 0.015625 µg/mL | 95.3
[9], 0.03125 µg/mL | 104
[9], 0.0625 µg/mL | 101.66
[9], 0.125 µg/mL | 95.9
[9], 0.25 µg/mL | 119
[9], 0.5 µg/mL | 123
[9], 1 µg/mL | 13.1
[9], 2 µg/mL | -6.81
[9], 4 µg/mL | -9.48
[10], 0.00390625 µg/mL | 101
[10], 0.0078125 µg/mL | 104
[10], 0.015625 µg/mL | 102
[10], 0.03125 µg/mL | 102.9
[10], 0.0625 µg/mL | 106.2
[10], 0.125 µg/mL | 98.2
[10], 0.25 µg/mL | 114
[10], 0.5 µg/mL | 120
[10], 1 µg/mL | 56.2
[10], 2 µg/mL | -2.79
[10], 4 µg/mL | -7.76
[11], 0.00390625 µg/mL | 101
[11], 0.0078125 µg/mL | 100.5
[11], 0.015625 µg/mL | 105
[11], 0.03125 µg/mL | 102
[11], 0.0625 µg/mL | 102
[11], 0.125 µg/mL | 100
[11], 0.25 µg/mL | 108
[11], 0.5 µg/mL | 137
[11], 1 µg/mL | 54
[11], 2 µg/mL | -5.92
[11], 4 µg/mL | -9.05
[12], 0.00390625 µg/mL | 97.7
[12], 0.0078125 µg/mL | 104
[12], 0.015625 µg/mL | 104
[12], 0.03125 µg/mL | 96.1
[12], 0.0625 µg/mL | 95
[12], 0.125 µg/mL | 100.8
[12], 0.25 µg/mL | 113
[12], 0.5 µg/mL | 123
[12], 1 µg/mL | 82.2
[12], 2 µg/mL | -0.0321
[12], 4 µg/mL | -6.21
